Measurements: paper PMC9619224
These are yes or no findings as the source states them, for the method shown. Binding seen in cells or lysates may run through a third protein. Some entries that bind do so weakly or less than the wild type. Blank lines part the entries; values can stand above or below the binder they belong to.

Amino acid sequences for entries named in this document (tags omitted). Residues count along the entry.
UniProt P35347, residues 24-415: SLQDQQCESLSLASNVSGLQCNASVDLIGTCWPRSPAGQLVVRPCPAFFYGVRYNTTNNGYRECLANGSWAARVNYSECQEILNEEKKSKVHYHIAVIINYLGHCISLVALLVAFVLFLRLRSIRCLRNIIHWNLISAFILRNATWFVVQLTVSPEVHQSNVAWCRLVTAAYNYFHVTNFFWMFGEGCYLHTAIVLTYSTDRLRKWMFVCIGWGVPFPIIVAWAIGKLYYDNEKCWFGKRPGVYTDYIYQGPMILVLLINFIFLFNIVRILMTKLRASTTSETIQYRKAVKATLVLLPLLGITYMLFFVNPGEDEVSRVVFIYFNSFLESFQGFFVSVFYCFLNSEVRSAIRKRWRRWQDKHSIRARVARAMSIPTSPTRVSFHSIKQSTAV
UniProt Q61121: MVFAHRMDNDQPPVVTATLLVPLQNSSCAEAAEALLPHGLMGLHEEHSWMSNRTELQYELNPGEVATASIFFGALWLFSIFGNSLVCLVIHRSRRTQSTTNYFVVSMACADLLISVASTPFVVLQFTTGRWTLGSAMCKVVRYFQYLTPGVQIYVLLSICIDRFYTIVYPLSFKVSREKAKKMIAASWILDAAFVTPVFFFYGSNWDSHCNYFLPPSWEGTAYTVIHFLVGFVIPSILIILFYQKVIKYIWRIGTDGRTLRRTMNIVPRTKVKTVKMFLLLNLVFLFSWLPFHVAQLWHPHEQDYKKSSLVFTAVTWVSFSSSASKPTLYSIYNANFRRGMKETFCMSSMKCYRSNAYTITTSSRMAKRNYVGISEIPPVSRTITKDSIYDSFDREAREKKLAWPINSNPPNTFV
UniProt Q8BZA7: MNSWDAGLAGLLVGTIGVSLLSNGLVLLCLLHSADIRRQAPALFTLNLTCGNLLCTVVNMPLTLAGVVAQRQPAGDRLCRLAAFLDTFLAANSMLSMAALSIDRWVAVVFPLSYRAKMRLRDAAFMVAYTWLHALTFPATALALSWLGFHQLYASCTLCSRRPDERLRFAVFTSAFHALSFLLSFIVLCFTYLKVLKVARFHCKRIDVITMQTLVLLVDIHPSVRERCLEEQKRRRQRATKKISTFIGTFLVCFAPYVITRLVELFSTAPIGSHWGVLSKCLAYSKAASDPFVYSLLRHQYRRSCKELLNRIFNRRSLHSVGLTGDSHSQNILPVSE
UniProt Q923Z0, residues 29-410: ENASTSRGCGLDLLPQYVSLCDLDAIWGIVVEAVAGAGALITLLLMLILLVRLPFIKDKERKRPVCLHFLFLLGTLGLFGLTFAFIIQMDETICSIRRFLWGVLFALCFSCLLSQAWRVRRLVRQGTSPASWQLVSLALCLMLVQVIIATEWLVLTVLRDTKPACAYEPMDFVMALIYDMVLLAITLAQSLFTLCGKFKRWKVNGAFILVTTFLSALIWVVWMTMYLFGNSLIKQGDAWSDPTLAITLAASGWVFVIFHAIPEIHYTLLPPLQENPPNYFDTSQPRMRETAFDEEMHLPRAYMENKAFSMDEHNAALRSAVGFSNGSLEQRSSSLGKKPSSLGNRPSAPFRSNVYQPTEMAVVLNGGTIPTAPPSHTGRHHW
UniProt P61793: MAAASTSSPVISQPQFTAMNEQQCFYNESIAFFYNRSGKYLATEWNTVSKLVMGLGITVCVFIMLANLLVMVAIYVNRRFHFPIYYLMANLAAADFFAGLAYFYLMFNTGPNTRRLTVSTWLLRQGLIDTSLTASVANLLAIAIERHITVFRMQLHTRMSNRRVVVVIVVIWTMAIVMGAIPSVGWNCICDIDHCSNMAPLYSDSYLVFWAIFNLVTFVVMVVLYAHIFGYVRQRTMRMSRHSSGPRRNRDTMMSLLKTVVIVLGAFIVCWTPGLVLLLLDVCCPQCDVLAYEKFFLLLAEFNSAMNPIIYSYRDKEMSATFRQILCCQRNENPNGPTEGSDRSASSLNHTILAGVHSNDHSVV
UniProt P56450: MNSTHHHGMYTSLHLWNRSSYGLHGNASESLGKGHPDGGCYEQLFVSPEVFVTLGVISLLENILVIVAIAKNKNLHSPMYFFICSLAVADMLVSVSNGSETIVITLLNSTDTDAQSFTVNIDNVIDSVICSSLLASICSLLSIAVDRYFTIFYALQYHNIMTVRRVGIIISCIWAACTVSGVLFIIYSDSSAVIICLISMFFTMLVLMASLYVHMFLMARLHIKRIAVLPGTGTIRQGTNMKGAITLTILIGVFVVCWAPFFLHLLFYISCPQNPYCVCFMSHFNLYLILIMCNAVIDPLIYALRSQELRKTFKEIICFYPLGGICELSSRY
UniProt E9Q468: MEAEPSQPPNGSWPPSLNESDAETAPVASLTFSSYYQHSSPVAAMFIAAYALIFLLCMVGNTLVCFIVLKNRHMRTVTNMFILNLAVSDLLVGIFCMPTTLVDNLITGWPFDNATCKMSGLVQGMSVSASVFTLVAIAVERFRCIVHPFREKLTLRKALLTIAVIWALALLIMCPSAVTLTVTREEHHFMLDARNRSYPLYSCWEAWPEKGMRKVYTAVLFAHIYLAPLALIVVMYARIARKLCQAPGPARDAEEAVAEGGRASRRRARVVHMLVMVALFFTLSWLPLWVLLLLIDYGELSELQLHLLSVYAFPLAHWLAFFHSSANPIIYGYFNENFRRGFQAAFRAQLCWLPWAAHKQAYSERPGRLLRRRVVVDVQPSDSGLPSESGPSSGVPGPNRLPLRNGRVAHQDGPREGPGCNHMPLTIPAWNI
UniProt O88319: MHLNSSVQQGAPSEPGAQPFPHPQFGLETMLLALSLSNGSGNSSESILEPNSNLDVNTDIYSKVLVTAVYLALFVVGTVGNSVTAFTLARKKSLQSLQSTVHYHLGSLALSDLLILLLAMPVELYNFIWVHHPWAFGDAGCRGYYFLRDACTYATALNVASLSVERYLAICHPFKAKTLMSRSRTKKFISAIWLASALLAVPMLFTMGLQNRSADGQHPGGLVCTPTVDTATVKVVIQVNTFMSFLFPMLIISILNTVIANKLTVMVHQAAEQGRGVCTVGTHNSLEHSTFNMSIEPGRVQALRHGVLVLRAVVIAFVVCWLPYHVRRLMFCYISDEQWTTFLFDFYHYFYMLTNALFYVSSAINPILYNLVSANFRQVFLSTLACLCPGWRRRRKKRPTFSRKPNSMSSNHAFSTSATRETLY
UniProt P30873: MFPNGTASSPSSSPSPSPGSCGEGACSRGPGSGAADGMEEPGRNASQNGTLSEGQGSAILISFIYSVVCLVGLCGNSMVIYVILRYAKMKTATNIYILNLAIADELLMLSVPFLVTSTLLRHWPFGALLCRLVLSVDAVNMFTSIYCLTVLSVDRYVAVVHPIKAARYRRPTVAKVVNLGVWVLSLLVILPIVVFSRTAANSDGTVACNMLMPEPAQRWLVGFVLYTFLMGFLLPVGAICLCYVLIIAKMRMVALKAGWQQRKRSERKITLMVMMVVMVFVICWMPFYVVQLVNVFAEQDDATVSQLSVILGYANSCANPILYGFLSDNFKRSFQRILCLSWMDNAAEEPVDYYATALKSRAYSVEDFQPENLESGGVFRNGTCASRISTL

Assays:
Assay in all cases: co-IP; HEK293T cells transfected with 3xHA-GPCR and 2xFlag-MRAP1 or MRAP2; GPCR immunoprecipitated with rabbit anti-HA, Protein A/G agarose, overnight at 4°C; MRAP detected by mouse anti-Flag blot
[1] = biological target: Corticotropin releasing hormone receptor 1 (mouse) (UniProt P35347)
[2] = biological target: G protein‐coupled receptor 19 (mouse) (UniProt Q61121)
[3] = biological target: G protein‐coupled receptor 26 (mouse) (UniProt Q8BZA7)
[4] = biological target: G protein‐coupled receptor, family C, group 5, member B (mouse) (UniProt Q923Z0)
[5] = biological target: Lysophosphatidic acid receptor 1 (mouse) (UniProt P61793)
[6] = biological target: Melanocortin 4 receptor (mouse) (UniProt P56450)
[7] = biological target: Neuropeptide FF receptor 1 (mouse) (UniProt E9Q468)
[8] = biological target: T1, Neuropeptide Y receptor Y2 (mouse) (UniProt P97295)
T1 sequence: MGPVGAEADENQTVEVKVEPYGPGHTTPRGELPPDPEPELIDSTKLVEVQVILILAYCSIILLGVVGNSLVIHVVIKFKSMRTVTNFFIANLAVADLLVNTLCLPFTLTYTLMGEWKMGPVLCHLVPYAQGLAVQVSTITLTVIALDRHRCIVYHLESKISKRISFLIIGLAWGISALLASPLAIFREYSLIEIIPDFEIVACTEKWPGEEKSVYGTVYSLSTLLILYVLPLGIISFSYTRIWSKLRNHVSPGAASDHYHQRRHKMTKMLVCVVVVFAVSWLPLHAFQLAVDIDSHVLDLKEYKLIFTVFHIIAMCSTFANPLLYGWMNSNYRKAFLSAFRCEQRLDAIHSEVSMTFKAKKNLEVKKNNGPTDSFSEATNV

[9] = biological target: Neurotensin receptor 1 (mouse) (UniProt O88319)
[10] = biological target: T2, Prolactin releasing hormone receptor (mouse) (UniProt Q6VMN6)
T2 sequence: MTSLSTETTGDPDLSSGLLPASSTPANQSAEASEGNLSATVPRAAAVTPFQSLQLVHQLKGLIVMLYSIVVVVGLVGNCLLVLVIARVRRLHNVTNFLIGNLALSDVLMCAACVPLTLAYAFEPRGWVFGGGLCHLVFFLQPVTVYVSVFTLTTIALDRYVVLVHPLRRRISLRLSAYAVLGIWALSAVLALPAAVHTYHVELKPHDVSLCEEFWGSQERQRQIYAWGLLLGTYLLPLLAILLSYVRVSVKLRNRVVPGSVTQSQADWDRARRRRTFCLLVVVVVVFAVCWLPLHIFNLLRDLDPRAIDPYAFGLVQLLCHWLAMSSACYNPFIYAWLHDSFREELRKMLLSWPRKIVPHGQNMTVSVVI

[11] = biological target: Somatostatin receptor 1 (mouse) (UniProt P30873)
[12] = biological target: T3, Thyrotropin releasing hormone receptor (mouse) (UniProt P21761)
T3 sequence: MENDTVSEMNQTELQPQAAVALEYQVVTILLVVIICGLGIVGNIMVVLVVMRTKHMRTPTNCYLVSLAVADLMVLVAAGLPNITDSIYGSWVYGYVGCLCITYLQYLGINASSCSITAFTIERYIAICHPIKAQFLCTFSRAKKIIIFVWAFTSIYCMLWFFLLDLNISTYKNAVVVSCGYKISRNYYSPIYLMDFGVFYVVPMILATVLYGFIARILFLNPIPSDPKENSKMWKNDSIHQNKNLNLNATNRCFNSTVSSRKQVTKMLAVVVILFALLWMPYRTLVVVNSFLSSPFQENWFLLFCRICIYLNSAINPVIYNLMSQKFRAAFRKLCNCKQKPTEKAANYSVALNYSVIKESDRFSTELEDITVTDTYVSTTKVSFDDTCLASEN

binding [1]: binds
binding [2]: binds
binding [3]: binds
binding [4]: binds
binding [5]: binds
binding [6]: binds
binding [7]: binds
binding [8]: binds
binding [9]: no binding
binding [10]: binds
binding [11]: no binding
binding [12]: binds
B1: melanocortin receptor accessory protein MRAP2 (protein, UniProt D3Z1Q2 1-207)
chain: MEMSAQRLASNRTSPQSPSNSDYTWEYEYYEIGPVSFEGLKAHKYSIVIGFWVGLAVFVIFMFFVLTLLTKTGAPHQDNAESSERRFRMNSFVSDFGKPLESDKVFSRQGNEESRSLFHCYINEVEHLDRVKVCHQTTAIDSDVHLQEASRSSGRPEEELARFMKFDIPNFVNTEQSSFGEDDLLISEAPVLLENKPVSQTSRIDLD

binding [1]: binds
binding [2]: no binding
binding [3]: binds
binding [4]: binds
binding [5]: binds
binding [6]: binds
binding [7]: binds
binding [8]: binds
binding [9]: no binding
binding [10]: binds
binding [11]: binds
binding [12]: no binding
B2: melanocortin receptor accessory protein MRAP1 (protein, UniProt Q9D159 1-127)
chain: MANGTDASVPLTSYEYYLDYIDLIPVDEKKLKANKHSIVIALWLSLATFVVLLFLILLYMSWSGSPQMRHSPQPQPICSWTHSFNLPLCLRRASLQTTEEPGRRAGTDQWLTQQSPSASAPGPLALP
